Screen size: about 120,000 compounds; about 5,300 (4.4%) were called active. The shares of active, inactive and inconclusive entries below differ from those in the screen. Calls come from the whole dose curve; as a rule, active = well fitted inhibition curve with a large enough effect; inconclusive = small, poorly fitted or top-dose-only effect; inactive = no such curve, though single readings can be large or run the other way. Where the call is inconclusive, the potency comes from a doubtful curve fit.
Test: qHTS Primary assay for Inhibitors of Plasmodium falciparum Dd2 growth in vitro; note: nearly all actives have a fitted effect of over 65% in size;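 for activity, negative = inhibition: plate controls were DMSO vehicle for no effect and reference drug for full effect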
Settings: P. falciparum Dd2 growth, SYBR Green, 72 h; activity, negative = inhibition: at 28.9 µM (top of the series) unless noted; series mostly up to 28.9 µM
Method in brief: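 Infected erythrocytes (Dd2, 0.3% parasitemia, 2.5% hematocrit final) are added to compound in RPMI-1640/Albumax II medium, grown 72 h at 37C in low oxygen, then lysed with saponin/Triton-X containing SYBR Green and read by fluorescence.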
Potency is the fitted concentration of half-maximal effect; tags give direction and shape of the fitted curve.

Q: For `COc1ccc(N2Cc3c(ncnc3N3CCN(c4ncccn4)CC3)N(C)CC2=O)cc1`, which “activity, negative = inhibition” value is on record?
A: inactive: -24.1%

Q: For `O=C(NCc1ccc2c(c1)OCO2)C1CC(c2ccccc2)CN(C(=O)c2ccccc2F)C1` (stereo unspecified), which Potency is on record?
A: inconclusive: 11.2 µM [inhibitor, single point]

Q: Which “activity, negative = inhibition” value does the source give for `CC(=O)N1CCC(C(=O)NC2CCN(c3cc(-c4ccccc4)[nH]n3)CC2)CC1` here?
A: inactive: 23.2%

Q: With `Cc1ccc(Cl)cc1-n1c(=O)c2sc3ccccc3c2n(CC(=O)NC2CCCC2)c1=O` as the compound, how does the Potency read?
A: inconclusive: 17.8 µM [inhibitor, single point]

Q: Which Potency does the source give for `Cc1ccc(S(=O)(=O)c2cn(C)c3cc(N4CCOCC4)c(F)cc3c2=O)c(C)c1` here?
A: inconclusive: 11.2 µM [inhibitor, partial curve]

Q: Which “outcome” value does the source give for `COc1ccc(-c2nnc([C@H]3CCN(C)C3)o2)cc1` here?
A: inactive [at 44.1 µM]

Q: For `COc1ccc(C(=O)N2CCCC(CO)CCNC(=O)CC2)cn1` (stereo unspecified), which “activity, negative = inhibition” value is on record?
A: inactive: -10.4%

Q: Which Potency does the source give for `O=C(Nc1cccc(-c2nnc3n2CCCC3)c1)c1ccccc1F` here?
A: inconclusive: 10 µM [inhibitor, partial curve, poor fit]

Q: For `O=C1CC(c2ccccc2)N(S(=O)(=O)c2ccc3c(c2)OCCO3)CCCCCN1` (stereo unspecified), which Potency is on record?
A: inconclusive: 8.91 µM [inhibitor, single point]

Q: Which “outcome” value does the source give for `COCc1ncc2c(n1)CCCN(CC(=O)NCc1ccccc1OC)C2=O` here?
A: inactive

Q: Which Potency does the source give for `COc1ccc(OC)c(C(=O)CN2C(=O)N(c3cc(C)cc(C)c3)S(=O)(=O)c3ccccc32)c1` here?
A: active: 10 µM

Q: For `O=C1CC(c2ccccc2)N(C(=O)CNC(=O)Nc2ccc3c(c2)OCCO3)CCCCCN1` (stereo unspecified), which Potency is on record?
A: inconclusive: 12.6 µM [inhibitor, single point]

Q: Which Potency does the source give for `Cc1ccc(CCNC(=O)c2nnn3c2COC(c2ccc(Cl)cc2)C3)cc1` (stereo unspecified) here?
A: inconclusive: 7.08 µM [inhibitor, partial curve, poor fit]

Q: With `CCN1CCN(c2oc(-c3ccc(COc4ccc(OC)cc4)o3)nc2C#N)CC1` as the compound, how does the Potency read?
A: inconclusive: 11.2 µM [inhibitor, single point]

Q: For `CC(C)(C)OC(=O)N1CCC(c2c(C(=O)NCCN3CCOCC3)cnn2-c2cccc(F)c2)CC1`, which Potency is on record?
A: inconclusive: 10 µM [inhibitor, single point]

Q: For `C=CCN(C)C[C@H]1CN2CC[C@H]1C[C@@H]2CNC(=O)Nc1ccccc1`, which “activity, negative = inhibition” value is on record?
A: inactive: -16.6% [at 44.1 µM]

Q: With `CCN(CC)S(=O)(=O)c1nnc(NC(=O)COc2ccccc2)s1` as the compound, how does the Potency read?
A: inconclusive: 20 µM [inhibitor, single point]

Q: For `O=C(CCn1c(=O)c2cccn2c2ccc(F)cc21)NCCc1ccc(Cl)cc1`, which Potency is on record?
A: inconclusive: 17.8 µM [inhibitor, single point]

Q: With `CCCNC(=O)c1coc(COc2ccc3c(c2)C(c2ccc(F)cc2)N(C(=O)C(C)C)CC3)n1` (stereo unspecified) as the compound, how does the Potency read?
A: inconclusive: 1.26 µM [inhibitor, partial curve, poor fit]

Q: With `O=C(C1CCCN(S(=O)(=O)c2cccc3nonc23)C1)N1CCN(c2ccccc2F)CC1` (stereo unspecified) as the compound, how does the Potency read?
A: inconclusive: 11.2 µM [inhibitor, single point]

Q: Which Potency does the source give for `CCN1c2cc(C(=O)Nc3ccc(Br)cc3)ccc2C(=O)N2CCCCCC21` (stereo unspecified) here?
A: inconclusive: 3.98 µM [inhibitor, single point]

Q: With `COc1ccc(C(=O)N2CCCCCCN(C)C(=O)[C@@H]3CCC[C@@H]32)cn1` as the compound, how does the “activity, negative = inhibition” value read?
A: inactive: 0.166%

Q: For `Cc1ccc(CNC(=O)c2oc3ccc(S(=O)(=O)N4CCCC(C)C4)cc3c2C)cc1` (stereo unspecified), which Potency is on record?
A: active: 10 µM

Q: With `COc1ccc2cc(C3CN(C(=O)Cc4ccc(O)cc4)CCO3)ccc2c1` (stereo unspecified) as the compound, how does the Potency read?
A: inconclusive: 8.91 µM [inhibitor, single point]

Q: With `O=[S+]1([O-])NCC2(CCN(Cc3ccsc3)CC2)Oc2ncccc21` as the compound, how does the Potency read?
A: inconclusive: 10 µM [inhibitor, single point]

Q: For `CN(C)c1ccc(CN2CC[C@H](c3nc4ccc(C#N)cc4[nH]3)C2)cc1`, which Potency is on record?
A: inconclusive: 2.82 µM [inhibitor, single point]

Q: With `O=C(CCc1ccnc(N2CCOCC2)c1)NCCN1CCc2ccccc2C1` as the compound, how does the Potency read?
A: inconclusive: 11.2 µM [inhibitor, partial curve, poor fit]

Q: For `CNCc1nccs1`, which “activity, negative = inhibition” value is on record?
A: inactive: 5.17% [at 44.1 µM]

Q: For `Cc1ccc(CNC(=O)N2CCC(c3ncc(C)n3C(C)C)C2)cc1` (stereo unspecified), which Potency is on record?
A: inconclusive: 11.2 µM [inhibitor, partial curve]

Q: Which Potency does the source give for `CC1=C[C@@H](CNC(=O)c2ccncc2)[C@H](C(C)C)C[C@H]1CC(=O)N1CCOCC1` here?
A: inconclusive: 31.6 µM [inhibitor, single point]

Q: For `O=C(c1ccc(C(F)(F)F)cc1)N1CCC2(CC1)C(=NC1CCCCC1)NC(=O)N2c1cc(F)cc(F)c1`, which Potency is on record?
A: inconclusive: 1.26 µM [inhibitor, full curve]

Q: For `Cc1ccc(NC(=O)c2nc(S(C)(=O)=O)ncc2N(Cc2cccc(F)c2)Cc2ccco2)cc1C`, which Potency is on record?
A: inconclusive: 17.8 µM [inhibitor, single point]

Q: Which Potency does the source give for `COCC1CN(C)CC12CCN(Cc1sccc1C)CC2` (stereo unspecified) here?
A: inconclusive: 3.55 µM [inhibitor, full curve, poor fit]

Q: With `CCC(=O)N(C1CCOCC1)C1CCN(S(=O)(=O)c2cccnc2)CC1` as the compound, how does the “activity, negative = inhibition” value read?
A: inactive: -15.7%

Q: For `O=C(CCC(F)(F)F)N1CCc2nc(-c3ccc(Cl)cc3)[nH]c2C1`, which Potency is on record?
A: inconclusive: 20 µM [inhibitor, single point]

Q: With `COc1ccc(OC)c(NC(=O)Cn2c(N3CCC(C)CC3)nc(C)cc2=O)c1` as the compound, how does the Potency read?
A: inconclusive: 10 µM [inhibitor, single point]

Q: Which Potency does the source give for `O=C(CC1CCN(S(=O)(=O)c2ccc(F)cc2)C1)NCc1ccccc1` (stereo unspecified) here?
A: inconclusive: 1 µM [inhibitor, partial curve, poor fit]

Q: For `COc1ccc2c(c1)nc1n2[C@@H](CNCc2ccccc2)COC1`, which Potency is on record?
A: inconclusive: 11.2 µM [inhibitor, partial curve, poor fit]

Q: Which Potency does the source give for `COc1ccc(CN2CC[C@H](c3nnc(-c4ccccc4F)o3)C2)cc1` here?
A: inconclusive: 1.78 µM [inhibitor, full curve, poor fit]

Q: With `Cn1ccnc1CN1C(=O)CO[C@H]2CN(CCCc3ccccc3)C[C@H]21` as the compound, how does the Potency read?
A: inconclusive: 22.4 µM [inhibitor, single point]

Q: For `CCOc1ccc(N2C(=O)c3[nH]nc(-c4ccccc4)c3C2c2ccc(O)c(OC)c2)cc1` (stereo unspecified), which Potency is on record?
A: inconclusive: 10 µM [inhibitor, single point]

— PubChem BioAssay AID1347417 (National Center for Advancing Translational Sciences (NCATS), 2020)
